{
  "source": "PubChem BioAssay AID686978",
  "about": "(National Center for Advancing Translational Sciences (NCATS), 2013)",
  "note": "The whole screen tested about 420,000 compounds, of which about 64,000 (15%) were called active. Inconclusive results, whose numbers are uncertain, are shown with a selection of clear calls. Calls follow the shape of the dose curve; as a rule, active = well fitted inhibition curve with a large enough effect; inconclusive = small, poorly fitted or top-dose-only effect; inactive = flat fitted curve, though single readings scatter. No potency is given beside an inconclusive call; the fits are too rough. % is scaled to controls: 0 for no effect and ±100 for the full control effect; potency is read from the fitted curve at half-maximal effect; tags tell the direction and shape of the fitted curve.",
  "data": [
    {"test": "qHTS for Inhibitors of human tyrosyl-DNA phosphodiesterase 1 (TDP1): qHTS in cells in absence of CPT; also: nearly all actives have a fitted effect of over 55% in size", "settings": "DT40 Tdp1-/- hTDP1 cells, no CPT, ATP luminescence, 48 h; activity change, negative = growth inhibition: at 46.2 µM (top of the series)", "how_it_was_run": "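Luminescent ATP content (CellTiter-Glo) served as the growth readout. Knockout chicken DT40 cells expressing human TDP1 were exposed to compounds without camptothecin for a minimum 48 hr at 37 °C.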", "values": [
      {"smiles": "COc1ccc(/C(C)=N/NC(=O)c2nnn(-c3nonc3N)c2-c2ccccc2)cc1", "Potency": "inconclusive [inhibitor, single point]"},
      {"smiles": "O=C(c1ccc(-c2ccccc2Cl)o1)N1CCN(c2ccccc2O)CC1", "Potency": "inconclusive [inhibitor, partial curve, poor fit]"},
      {"smiles": "O=C(CN1CCOCC1)N1CCN(c2ccc([N+](=O)[O-])cc2)CC1", "Potency": "inconclusive [inhibitor, partial curve]"},
      {"smiles": "Cc1n[nH]c2ccc([N+](=O)[O-])cc2c1=O", "activity change, negative = growth inhibition": "inactive: -29.9%"},
      {"smiles": "Cc1nnc(NC(=O)C2CCN(S(=O)(=O)c3cc([N+](=O)[O-])ccc3Cl)CC2)o1", "activity change, negative = growth inhibition": "inactive: 13.3%"},
      {"smiles": "CC1(C)CC(=O)C([C@H]2C3=C(CC(C)(C)CC3=O)Oc3ccccc32)C(=O)C1", "activity change, negative = growth inhibition": "inactive: -0.446%"},
      {"smiles": "CCOc1ccc(S(=O)(=O)N2CCOCC2)cc1NC(=O)c1ccc(N2CCCC2=O)cc1", "activity change, negative = growth inhibition": "inactive: -24.4%"},
      {"smiles": "O=[N+]([O-])c1ccccc1/C=N\\N1CCN(Cc2ccccc2Cl)CC1", "activity change, negative = growth inhibition": "inconclusive: -32.5% [inhibitor]"},
      {"smiles": "CCCOc1ccc(CSC(CC(=O)O)C(=O)O)cc1", "note": "(centres undefined)", "activity change, negative = growth inhibition": "inactive: -4.32%"},
      {"smiles": "COc1ccc(CCNC(=O)CSc2nnc(CNC(=O)c3cc(OC)c(OC)c(OC)c3)o2)cc1OC", "activity change, negative = growth inhibition": "inactive: 29.9%"},
      {"smiles": "CCOc1ccc(C(=O)N/N=C/c2ccc(-c3ccc(S(=O)(=O)Nc4ncccn4)cc3)o2)cc1", "activity change, negative = growth inhibition": "inactive: -5.98%"},
      {"smiles": "COc1ccc(N2CCN(C(=S)Nc3ccc(F)cc3)CC2)cc1", "activity change, negative = growth inhibition": "inactive: 0.0964%"},
      {"smiles": "COc1ccc(C2C=C(c3ccccc3)Nc3nc(CCCO)nn32)cc1", "note": "(centres undefined)", "Potency": "inconclusive [inhibitor, full curve, poor fit]"},
      {"smiles": "O=C(NC1CCCC1)C(c1c(F)cccc1Cl)N(C(=O)c1csnn1)C1CC1", "note": "(centres undefined)", "activity change, negative = growth inhibition": "inactive: -3.6%"},
      {"smiles": "O=C(O)CSc1nnc(CNc2ccc(F)cc2)n1-c1ccccc1", "activity change, negative = growth inhibition": "inactive: -15.2%"},
      {"smiles": "COc1ccc(COc2ccsc2C(=O)Nc2ccc(Cl)cc2)cc1", "Potency": "inconclusive [inhibitor, single point]"},
      {"smiles": "CCN(CC(=O)Nc1c(F)cccc1F)C(=O)C1CCN(c2ncnc3sc(C)c(C)c23)CC1", "Potency": "active: 18.4 µM"},
      {"smiles": "CCc1nc2ccc(C(=O)N3CCN(c4cccc(C)c4C)CC3)cc2nc1CC", "Potency": "inconclusive [inhibitor, single point]"},
      {"smiles": "CCOc1ccc(/C=N/NC(=O)c2nnn(-c3nonc3N)c2COc2ccc(F)cc2)cc1", "Potency": "inconclusive [inhibitor, partial curve, poor fit]"},
      {"smiles": "Cc1cccc(C)c1NC(=O)C1(C)CSCC(=O)N1Cc1cccc(C(F)(F)F)c1", "note": "(centres undefined)", "Potency": "active: 25.9 µM"},
      {"smiles": "CCOC(=O)c1cc(CC)sc1NC(=O)COc1ccc2c(C)cc(=O)oc2c1", "Potency": "inconclusive [inhibitor, single point]"},
      {"smiles": "O=C(c1ccc(Cl)c([N+](=O)[O-])c1)N(Cc1ccc(F)cc1)C1CCS(=O)(=O)C1", "note": "(centres undefined)", "Potency": "inconclusive [inhibitor, single point]"},
      {"smiles": "CCN(C(=O)/C=C/c1cc(OC)c(OC)c(OC)c1)C1CCCCC1", "Potency": "inconclusive [inhibitor, partial curve]"},
      {"smiles": "Cc1ccc(-c2nc3c4ccccc4[nH]c(=O)n3n2)cc1", "Potency": "inconclusive [inhibitor, partial curve]"},
      {"smiles": "Cc1cc(C)cc(N(C(=O)c2cc3ccccc3oc2=O)C2C=CS(=O)(=O)C2)c1", "note": "(centres undefined)", "Potency": "inconclusive [inhibitor, single point]"},
      {"smiles": "O=C(c1ccc(CSc2nc3ccncc3n2Cc2ccc(F)cc2)cc1)N1CCCCCC1", "Potency": "inconclusive [inhibitor, single point]"},
      {"smiles": "COc1ccc(NS(=O)(=O)c2cc(NC(=O)Cn3cnc4c3c(=O)n(C)c(=O)n4C)ccc2C)cc1", "Potency": "inconclusive [inhibitor, single point]"},
      {"smiles": "CCCN1C(=O)/C(=N\\OCC(=O)NC23CC4CC(CC(C4)C2)C3)c2ccccc21", "Potency": "active: 16.4 µM"},
      {"smiles": "Cc1ccccc1CSc1nc2n(n1)C(c1cccs1)C1=C(CCCC1=O)N2", "note": "(centres undefined)", "Potency": "active: 18.4 µM"},
      {"smiles": "CCN(C(=O)c1coc(=O)c(Br)c1)c1ccc2c(c1)OCO2", "Potency": "active: 1.03 µM"},
      {"smiles": "CCC(=O)Nc1c(-c2ccc3ccccc3c2)nc2ccccn12", "activity change, negative = growth inhibition": "inactive: 1.68%"},
      {"smiles": "O=S(=O)(c1ccc2c(c1)OCO2)N1CCN(c2nnnn2-c2ccccc2)CC1", "Potency": "inconclusive [inhibitor, single point]"},
      {"smiles": "CC(C)(C)NS(=O)(=O)c1ccc(/C=C/C(=O)O)cc1", "activity change, negative = growth inhibition": "inactive: -6.68%"},
      {"smiles": "COc1ccc([C@H]2C[C@@H](n3cc(-c4ccc(F)cc4)nn3)[C@H](O)CN2C(=O)C2CCCCC2)cc1", "Potency": "active: 8.2 µM"},
      {"smiles": "O=C(CN1CCC(C(=O)c2ccc(Cl)cc2)CC1)Nc1ccc2c(c1)OCCO2", "Potency": "inconclusive [inhibitor, single point]"},
      {"smiles": "O=C(NCCC1=CCCCC1)c1ccc(Br)o1", "Potency": "active: 9.2 µM"},
      {"smiles": "CCOc1ccc(-c2cc(OC(=O)c3ccc(OC)cc3)c3c(C)oc(C)c3c(=O)c2)cc1", "Potency": "inconclusive [inhibitor, single point]"},
      {"smiles": "Cc1ccc(S(=O)(=O)N(C)CC(=O)OCC(=O)N2CC(=O)Nc3ccccc32)cc1", "activity change, negative = growth inhibition": "inactive: -9.32%"},
      {"smiles": "CC1(Oc2ccccc2-c2ccno2)CCN(Cc2ccc(-c3ccccc3)o2)C1", "note": "(centres undefined)", "Potency": "active: 23.1 µM"},
      {"smiles": "Cc1ccnc(NC(=O)/C=C/c2ccccc2Cl)c1", "activity change, negative = growth inhibition": "inactive: -1.02%"},
      {"smiles": "COc1ccc2c(c1)O/C(=C\\c1sccc1C)C2=O", "Potency": "active: 18.4 µM"},
      {"smiles": "COc1ccc(CCNC(=O)COc2ccc(N(C)S(=O)(=O)c3ccc(C)cc3)cc2)cc1OC", "Potency": "active: 16.4 µM"},
      {"smiles": "CCN(CC)S(=O)(=O)c1ccc(C(=O)OCn2nnc3ccccc3c2=O)cc1", "activity change, negative = growth inhibition": "inactive: -5.12%"},
      {"smiles": "CCOC(=O)c1cnn(Cc2ccccc2Cl)c1N", "activity change, negative = growth inhibition": "inactive: -12.2%"},
      {"smiles": "O=C(Nc1ccccc1F)C1C2C=CC3(O2)C1C(=O)N(c1cccnc1)C3C(=O)NC1CCCCC1", "note": "(centres undefined)", "activity change, negative = growth inhibition": "inactive: -2.74%"},
      {"smiles": "O=C(Nc1ccccc1)C1Cc2c(-c3cccc(F)c3)ccnc2O1", "note": "(centres undefined)", "Potency": "inconclusive [inhibitor, single point]"},
      {"smiles": "CCCCn1c(N)c(N(CC(C)C)C(=O)C2CCN(S(=O)(=O)c3ccc(C)c(C)c3)CC2)c(=O)[nH]c1=O", "activity change, negative = growth inhibition": "inactive: -7.17%"},
      {"smiles": "CCOc1ccccc1CNC(=O)c1cc2n(n1)CCCN(Cc1ccc(C)cc1)C2=O", "Potency": "active: 14.6 µM"},
      {"smiles": "O=[N+]([O-])c1ccc(N2N=C(c3ccco3)CC2c2ccccc2)cc1", "note": "(centres undefined)", "Potency": "inconclusive [inhibitor, single point]"},
      {"smiles": "O=C(NC1CCCCC1)N(c1ccccc1)c1nnc(-c2cccc([N+](=O)[O-])c2)s1", "Potency": "active: 11.6 µM"},
      {"smiles": "CCc1cc2c(=O)c(-c3ccc(F)cc3)c(C)oc2cc1OCC(=O)O", "activity change, negative = growth inhibition": "inactive: 1.73%"},
      {"smiles": "CSC1=NC(=O)/C(=C/c2ccc(SC)cc2)S1", "Potency": "inconclusive [inhibitor, single point]"},
      {"smiles": "COc1ccccc1N1CCN(C(=O)c2cccc(N3C(=O)C4C5C=CC(C5)C4C3=O)c2)CC1", "note": "(centres undefined)", "Potency": "inconclusive [inhibitor, single point]"},
      {"smiles": "COc1ccc(OC)c(NC(=O)c2cc(-c3cc(C)cc(C)c3O)n[nH]2)c1", "Potency": "inconclusive [inhibitor, partial curve]"},
      {"smiles": "CC1(C(=O)Nc2ccc3c(c2)OCCO3)CCN1C(=O)c1ccco1", "note": "(centres undefined)", "activity change, negative = growth inhibition": "inactive: -11%"},
      {"smiles": "COc1ccccc1N1CCN(C(=O)c2ccc(S(=O)(=O)N3CCCCC3)cc2)CC1", "Potency": "active: 25.9 µM"},
      {"smiles": "COc1ccccc1-c1cc(SC)c(C#N)c(=O)o1", "Potency": "active: 5.8 µM"},
      {"smiles": "Cc1onc(-c2ccccc2)c1C(=O)N1CCCc2ccccc21", "Potency": "active: 16.4 µM"},
      {"smiles": "O=C(CCN1C(=O)C2CC=C(Cl)CC2C1=O)Nc1ccccc1O", "note": "(centres undefined)", "activity change, negative = growth inhibition": "inactive: -11.8%"},
      {"smiles": "COC(=O)c1ccccc1NC(=O)c1ccc2nccnc2c1", "Potency": "inconclusive [inhibitor, single point]"},
      {"smiles": "Cc1ccc(NC(=O)/C(=C\\c2ccco2)NC(=O)c2ccco2)cc1", "Potency": "inconclusive [inhibitor, full curve]"},
      {"smiles": "COc1ccc(C(=O)NC(=S)NCc2cccnc2)cc1Cl", "Potency": "inconclusive [inhibitor, single point]"},
      {"smiles": "COc1ccccc1CCNC(=O)C1CCN(C(=O)/C=C/c2ccccc2)CC1", "Potency": "inconclusive [inhibitor, partial curve]"},
      {"smiles": "Cc1ccccc1NC(=O)C1CCCN(S(=O)(=O)c2ccc3c(c2)C(C)(C)C(=O)N3C)C1", "note": "(centres undefined)", "Potency": "inconclusive [inhibitor, single point]"},
      {"smiles": "CSc1ccc(CCNC(=O)c2cc(C)nn2-c2ccccc2)cc1", "Potency": "inconclusive [inhibitor, partial curve]"},
      {"smiles": "CCc1cccc(-n2c(C)nc3c(cnn3-c3ccc(C)c(C)c3)c2=O)c1", "Potency": "active: 23.1 µM"},
      {"smiles": "Cc1ccc(CNC(=O)c2cccnc2)cc1", "activity change, negative = growth inhibition": "inactive: 6.83%"},
      {"smiles": "COCCNC(=O)C(c1ccc(F)cc1)N(Cc1ccccc1)C(=O)CCC(=O)Nc1nccs1", "note": "(centres undefined)", "activity change, negative = growth inhibition": "inactive: -13.9%"},
      {"smiles": "COc1cccc(NC(=O)Nc2ccc(C)c(Cl)c2)c1", "Potency": "inconclusive [inhibitor, single point]"},
      {"smiles": "Cc1ccc(NC(=O)c2c(C)noc2-c2snnc2C)cc1", "Potency": "inconclusive [inhibitor, partial curve]"},
      {"smiles": "Cc1nnc(Sc2cc(C(=O)NCc3ccco3)c3ccccc3n2)s1", "Potency": "inconclusive [inhibitor, single point]"},
      {"smiles": "Cc1ccc(-n2c(C)cc(/C=N/NC(=O)CC3(C)OCCO3)c2C)c(C)c1", "Potency": "inconclusive [inhibitor, single point]"},
      {"smiles": "O=C(Nc1nc2ccccc2[nH]1)c1ccccc1", "Potency": "inconclusive [inhibitor, single point]"},
      {"smiles": "Cc1cc(C(O)c2ncc(-c3ccccc3F)[nH]2)ccc1F", "note": "(centres undefined)", "Potency": "inconclusive [inhibitor, single point]"}
    ]}
  ]
}
